Results as given in the antibiotic and cytotoxicity screens of Wong et al. (2023).
This is one part of the list.

What follows are compounds tested on HSkMC (human skeletal muscle cells) (assay: cytotoxicity call (relative viability < 0.9)). Conditions: 10 µM.
With `COc1oc(C(=O)NC2CCCCC2)c(-c2ccc(Cl)cc2)c1S(=O)(=O)c1ccccc1Cl` the cytotoxicity call was “inactive”.
For `Cc1ccc(S(=O)(=O)N(C)C[C@H]2Oc3ccc(NC(=O)c4ccncc4)cc3CC(=O)N([C@H](C)CO)C[C@H]2C)cc1`, the cytotoxicity call was “inactive”.
For `Cc1noc(C)c1S(=O)(=O)N(C)C[C@H]1Oc2ccc(NC(=O)Nc3ccccc3)cc2CC(=O)N([C@@H](C)CO)C[C@@H]1C`, the cytotoxicity call was “inactive”.
With `CNC(=O)C[C@H]1C[C@@H]2CN(S(=O)(=O)c3cccnc3)C[C@@H]2O1` the cytotoxicity call was “inactive”.
In the case of `CC1=NCCC2c3ccc(O)cc3NC12` (stereo not given), the cytotoxicity call was “inactive”.
`C[C@H]1CCCCO[C@H](CN(C)C(=O)c2ccncc2)[C@@H](C)CN([C@@H](C)CO)C(=O)c2cc(NS(C)(=O)=O)ccc2O1` was tested, and the cytotoxicity call was “inactive”.
With `CCn1c(N)c(C(N)=O)sc1=S` the cytotoxicity call was “inactive”.
In the case of `C[C@@H]1CCCCO[C@@H](CN(C)CC2CC2)[C@@H](C)CN([C@H](C)CO)C(=O)c2cc(NS(=O)(=O)c3cn(C)cn3)ccc2O1`, the cytotoxicity call was “inactive”.
With `C[C@H]1CCCCO[C@H](CN(C)C(=O)Nc2ccccc2)[C@@H](C)CN([C@@H](C)CO)C(=O)c2cc(NC(=O)Nc3ccccc3)ccc2O1` the cytotoxicity call was “inactive”.
In the case of `Cc1noc(C)c1NC(=O)N(C)C[C@H]1Oc2ccc(NC(=O)CCN3CCOCC3)cc2CC(=O)N([C@H](C)CO)C[C@@H]1C`, the cytotoxicity call was “inactive”.
In the case of `COc1ccc(S(=O)(=O)N(C)C[C@@H]2Oc3ccc(NC(=O)NC(C)C)cc3C(=O)N([C@@H](C)CO)C[C@@H]2C)cc1`, the cytotoxicity call was “inactive”.
For `COc1ccc(C#Cc2cnc3c(c2)C(=O)N([C@H](C)CO)C[C@H](C)[C@H](CN(C)S(=O)(=O)c2cccc(F)c2)O3)cc1OC`, the cytotoxicity call was “inactive”.
For `C[C@H](CO)N1C[C@H](C)[C@@H](CN(C)C(=O)Cc2ccccc2)OCCCC[C@H](C)Oc2ccc(NC(=O)C3CCCCC3)cc2C1=O`, the cytotoxicity call was “inactive”.
With `Cc1ccc(S(=O)(=O)Nc2ccc3c(c2)CC(=O)N([C@@H](C)CO)C[C@@H](C)[C@@H](CN(C)S(=O)(=O)c2ccc(F)cc2)O3)cc1` the cytotoxicity call was “inactive”.
With `C[C@H](CO)N1C[C@H](C)[C@@H](CN(C)Cc2ccc(Oc3ccccc3)cc2)Oc2ccc(NC(=O)Cc3ccccc3)cc2CC1=O` the cytotoxicity call was “inactive”.
In the case of `O=C(C[C@@H]1CC[C@@H]2[C@H](COC[C@H](O)CN2C(=O)Nc2cccc(Cl)c2)O1)NCCCN1CCOCC1`, the cytotoxicity call was “inactive”.
`FC(F)(F)C(Cl)Br` (stereo not given) was tested, and the cytotoxicity call was “inactive”.
`COC(=O)[C@@H]1C[C@@H](C#N)N[C@@H]1c1ccccn1` was tested, and the cytotoxicity call was “inactive”.
For `O=c1cc(-c2ccccc2)oc2ccc(O)cc12`, the cytotoxicity call was “inactive”.
For `CC(C)(N)c1cc(C(=O)N[C@@H]2CCc3ccc(Oc4ccnc5c4CCC(=O)N5)cc3C2)cc(C(F)(F)F)c1`, the cytotoxicity call was “inactive”.
`C[C@@H]1CN([C@H](C)CO)C(=O)c2cc(NS(=O)(=O)c3ccc(Cl)cc3)ccc2O[C@@H]1CN(C)S(C)(=O)=O` was tested, and the cytotoxicity call was “inactive”.
`Nc1nnnn1CC(=O)OCC(=O)Nc1ccccc1` was tested, and the cytotoxicity call was “inactive”.
`CO[C@H]1CN(C)C(=O)c2cc(NC(=O)C3CC3)ccc2OC[C@@H](C)N(C(=O)Cc2ccccn2)C[C@@H]1C` was tested, and the cytotoxicity call was “inactive”.
With `CNc1cccc(CN)c1` the cytotoxicity call was “inactive”.
With `Cc1cc2c(s1)Nc1ccccc1N=C2N1CCN(C)CC1` the cytotoxicity call was “inactive”.
In the case of `C[C@H](CO)N1C[C@H](C)[C@H](CN(C)C(=O)Nc2ccc3c(c2)OCO3)OCCCC[C@H](C)Oc2ccc(NC(=O)CCC(F)(F)F)cc2C1=O`, the cytotoxicity call was “inactive”.
For `Cc1noc(C)c1NC(=O)N(C)C[C@@H]1Oc2ccc(NC(=O)Cn3cnnn3)cc2CC(=O)N([C@@H](C)CO)C[C@H]1C`, the cytotoxicity call was “inactive”.
For `CN1CCN(C(=O)C[C@@H]2CC[C@@H]3[C@H](COC[C@@H](O)CN3C(=O)Nc3ccc4c(c3)OCO4)O2)CC1`, the cytotoxicity call was “inactive”.
`C[C@H]1CCC2=C(CCC[C@@]2(C)C(=O)O)[C@@]1(C)CCc1ccoc1` was tested, and the cytotoxicity call was “inactive”.
For `NC(=O)c1ncn(C2OC(CO)C(O)C2O)n1` (stereo not given), the cytotoxicity call was “inactive”.
For `COc1ccccc1C#Cc1ccc2c(c1)O[C@H](CN(C)Cc1cncnc1)[C@@H](C)CN([C@H](C)CO)S2(=O)=O`, the cytotoxicity call was “inactive”.
In the case of `Cc1ccc(S(=O)(=O)N(C)C[C@@H]2OCCCC[C@H](C)Oc3ccc(NS(=O)(=O)c4ccc(F)cc4)cc3C(=O)N([C@H](C)CO)C[C@@H]2C)cc1`, the cytotoxicity call was “inactive”.
For `C[C@@H]1CN([C@@H](C)CO)C(=O)c2cc(NC(=O)C3CCCCC3)ccc2O[C@@H](C)CCCCO[C@@H]1CN(C)C(=O)Nc1cccc2ccccc12`, the cytotoxicity call was “inactive”.
`COc1cc(N2CCC(N3CCN(C)CC3)CC2)ccc1Nc1ncc(Cl)c(Nc2ccccc2S(=O)(=O)C(C)C)n1` was tested, and the cytotoxicity call was “active”.
In the case of `C[C@@H]1CN([C@H](C)CO)C(=O)c2cccc(NC(=O)c3cnccn3)c2O[C@H]1CN(C)S(=O)(=O)c1cn(C)cn1`, the cytotoxicity call was “inactive”.
In the case of `O=C(C[C@H]1C[C@H]2c3cc(NC(=O)c4ccc5c(c4)OCO5)ccc3O[C@H]2[C@H](CO)O1)NCC(F)(F)F`, the cytotoxicity call was “inactive”.
For `COC(=O)[C@H](Cc1ccccc1)N1CC2=C[C@@H](C3CC3)n3c(=O)n(C)c(=O)n3[C@H]2[C@@H]1[C@@H](O)CCn1cc(COc2ccccc2/C=C(C)/C=C/C(=O)NO)nn1`, the cytotoxicity call was “inactive”.
With `C[C@H](CO)N1C[C@H](C)[C@H](CN(C)C(=O)C2CCCCC2)Oc2cc(Br)ccc2S1(=O)=O` the cytotoxicity call was “inactive”.
In the case of `C[C@H]1CN([C@@H](C)CO)C(=O)c2cc(/C=C/c3ccccc3)cnc2O[C@@H]1CN(C)C(=O)CN1CCOCC1`, the cytotoxicity call was “inactive”.
With `CC(C)NC(=O)N[C@@H]1C=C[C@H](CC(=O)NCCCN(C)C)O[C@@H]1CO` the cytotoxicity call was “inactive”.
